Experimental data published in the supplement of paper PMC4967469.
IC50 is the fitted dose that halves viability relative to control wells, and lower means more sensitive; a fit beyond the top or the lowest dose is shown as a bound at that dose. AUC is the area under the same curve over the 256-fold range up to the top dose, as a fraction: 1 means no effect, lower means more sensitive. For part of these data: Any top dose called inferred was calculated from the reported fits. For part of these data: Drugs with an entry number were screened twice under separate entries, and the two screens often disagree.

How the values were obtained:
Assay in all cases: Viability of human cancer cell lines after 72 h of drug (GDSC screen)
[1] = compound: C=C1C(=O)O[C@H]2[C@H]1CC/C(C)=C/CC[C@@]1(C)O[C@@H]21 [Parthenolide]; conditions: top dose 5 µM
Experimental: (§1)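 Human cancer cell lines in 384-well plates, medium with 10% serum, drug for 72 h over a 256-fold dose range (nine 2-fold or five 4-fold steps up to the top dose). Adherent lines were fixed and stained with the nucleic acid dye Syto60, suspension lines read with resazurin; signal relative to control wells, capped at 0 and 100%. One two-parameter sigmoid per drug and line, fitted in a mixed model over all curves with the slope shared within a line.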

[2] = compound: NC(=O)[C@@H](CCC(F)(F)F)N(Cc1ccc(-c2ncon2)cc1F)S(=O)(=O)c1ccc(Cl)cc1 [BMS-708163]; conditions: top dose 5 µM; screen: GDSC drug entry 1072; top dose inferred
Experimental: as §1

[3] = compound: C=CCc1cccc(/C=N/NC(=O)CN2CCN(Cc3ccccc3)CC2)c1O [PAC-1]; conditions: top dose 2.56 µM
Experimental: as §1

[4] = compound: COc1cc2ncn(-c3cc(OCc4ccccc4S(C)(=O)=O)c(C#N)s3)c2cc1OC [KIN001-135]; conditions: top dose 5 µM; top dose inferred
Experimental: as §1

RS4-11 (leukaemia, suspension)
AUC [1]: 0.975
IC50 [1]: > 5 µM
AUC [2]: 0.983
IC50 [2]: > 5 µM
AUC [3]: 0.773
IC50 [3]: 0.912 µM
AUC [4]: 0.988
IC50 [4]: > 5 µM

Raji (Burkitt lymphoma, suspension)
AUC [1]: 0.961
IC50 [1]: > 5 µM
AUC [2]: 0.989
IC50 [2]: > 5 µM
AUC [3]: 0.833
IC50 [3]: 1.51 µM
AUC [4]: 0.99
IC50 [4]: > 5 µM

Ramos-2G6-4C10 (Burkitt lymphoma, suspension)
AUC [1]: 0.952
IC50 [1]: > 5 µM
AUC [2]: 0.991
IC50 [2]: > 5 µM
AUC [3]: 0.941
IC50 [3]: > 2.56 µM
AUC [4]: 0.991
IC50 [4]: > 5 µM

SBC-1 (small cell lung carcinoma, suspension)
AUC [1]: 0.971
IC50 [1]: > 5 µM
AUC [2]: 0.989
IC50 [2]: > 5 µM
AUC [3]: 0.979
IC50 [3]: > 2.56 µM
AUC [4]: 0.989
IC50 [4]: > 5 µM

SCH (stomach, adherent)
AUC [1]: 0.984
IC50 [1]: > 5 µM
AUC [2]: 0.936
IC50 [2]: > 5 µM
AUC [3]: 0.988
IC50 [3]: > 2.56 µM
AUC [4]: 0.988
IC50 [4]: > 5 µM

SF126 (glioma, adherent)
AUC [1]: 0.913
IC50 [1]: > 5 µM
AUC [2]: 0.977
IC50 [2]: > 5 µM
AUC [3]: 0.963
IC50 [3]: > 2.56 µM
AUC [4]: 0.986
IC50 [4]: > 5 µM

SF268 (glioma, adherent)
AUC [1]: 0.921
IC50 [1]: > 5 µM
AUC [2]: 0.96
IC50 [2]: > 5 µM
AUC [3]: 0.905
IC50 [3]: > 2.56 µM
AUC [4]: 0.984
IC50 [4]: > 5 µM

SH-4 (melanoma, adherent)
AUC [1]: 0.912
IC50 [1]: > 5 µM
AUC [2]: 0.947
IC50 [2]: > 5 µM
AUC [3]: 0.973
IC50 [3]: > 2.56 µM
AUC [4]: 0.925
IC50 [4]: > 5 µM

SHP-77 (small cell lung carcinoma, semi-adherent)
AUC [1]: 0.985
IC50 [1]: > 5 µM
AUC [2]: 0.972
IC50 [2]: > 5 µM
AUC [3]: 0.946
IC50 [3]: > 2.56 µM
AUC [4]: 0.987
IC50 [4]: > 5 µM

SIMA (neuroblastoma, adherent)
AUC [1]: 0.974
IC50 [1]: > 5 µM
AUC [2]: 0.938
IC50 [2]: > 5 µM
AUC [3]: 0.845
IC50 [3]: 2.22 µM
AUC [4]: 0.955
IC50 [4]: > 5 µM

SJSA-1 (bone, adherent)
AUC [1]: 0.954
IC50 [1]: > 5 µM
AUC [2]: 0.978
IC50 [2]: > 5 µM
AUC [3]: 0.882
IC50 [3]: > 2.56 µM
AUC [4]: 0.96
IC50 [4]: > 5 µM

SK-ES-1 (Ewing sarcoma, semi-adherent)
AUC [1]: 0.937
IC50 [1]: > 5 µM
AUC [2]: 0.976
IC50 [2]: > 5 µM
AUC [3]: 0.839
IC50 [3]: 1.92 µM
AUC [4]: 0.968
IC50 [4]: > 5 µM

SK-LMS-1 (soft tissue, adherent)
AUC [1]: 0.859
IC50 [1]: 3.81 µM
AUC [2]: 0.987
IC50 [2]: > 5 µM
AUC [3]: 0.978
IC50 [3]: > 2.56 µM
AUC [4]: 0.987
IC50 [4]: > 5 µM

SK-MEL-1 (melanoma, suspension)
AUC [1]: 0.993
IC50 [1]: > 5 µM
AUC [2]: 0.993
IC50 [2]: > 5 µM
AUC [3]: 0.993
IC50 [3]: > 2.56 µM
AUC [4]: 0.992
IC50 [4]: > 5 µM

SK-MEL-2 (melanoma, adherent)
AUC [1]: 0.987
IC50 [1]: > 5 µM
AUC [2]: 0.978
IC50 [2]: > 5 µM
AUC [3]: 0.946
IC50 [3]: > 2.56 µM
AUC [4]: 0.98
IC50 [4]: > 5 µM

SK-MM-2 (myeloma, suspension)
AUC [1]: 0.959
IC50 [1]: > 5 µM
AUC [2]: 0.984
IC50 [2]: > 5 µM
AUC [3]: 0.931
IC50 [3]: > 2.56 µM
AUC [4]: 0.985
IC50 [4]: > 5 µM

SK-N-DZ (neuroblastoma, adherent)
AUC [1]: 0.878
IC50 [1]: 4.99 µM
AUC [2]: 0.978
IC50 [2]: > 5 µM
AUC [3]: 0.976
IC50 [3]: > 2.56 µM
AUC [4]: 0.988
IC50 [4]: > 5 µM

SK-N-FI (neuroblastoma, adherent)
AUC [1]: 0.942
IC50 [1]: > 5 µM
AUC [2]: 0.94
IC50 [2]: > 5 µM
AUC [3]: 0.989
IC50 [3]: > 2.56 µM
AUC [4]: 0.987
IC50 [4]: > 5 µM

SK-PN-DW (Ewing sarcoma, adherent)
AUC [1]: 0.903
IC50 [1]: > 5 µM
AUC [2]: 0.985
IC50 [2]: > 5 µM
AUC [3]: 0.974
IC50 [3]: > 2.56 µM
AUC [4]: 0.975
IC50 [4]: > 5 µM

SK-UT-1 (soft tissue, adherent)
AUC [1]: 0.695
IC50 [1]: 1.04 µM
AUC [2]: 0.925
IC50 [2]: > 5 µM
AUC [3]: 0.975
IC50 [3]: > 2.56 µM
AUC [4]: 0.989
IC50 [4]: > 5 µM

SLVL (B-cell lymphoma, suspension)
AUC [1]: 0.954
IC50 [1]: > 5 µM
AUC [2]: 0.985
IC50 [2]: > 5 µM
AUC [3]: 0.879
IC50 [3]: > 2.56 µM
AUC [4]: 0.978
IC50 [4]: > 5 µM

SNU-C1 (large intestine, suspension)
AUC [1]: 0.975
IC50 [1]: > 5 µM
AUC [2]: 0.976
IC50 [2]: > 5 µM
AUC [3]: 0.93
IC50 [3]: > 2.56 µM
AUC [4]: 0.936
IC50 [4]: > 5 µM

SR (lymphoid neoplasm, suspension)
AUC [1]: 0.914
IC50 [1]: > 5 µM
AUC [2]: 0.983
IC50 [2]: > 5 µM
AUC [3]: 0.923
IC50 [3]: > 2.56 µM
AUC [4]: 0.985
IC50 [4]: > 5 µM

ST486 (Burkitt lymphoma, suspension)
AUC [1]: 0.954
IC50 [1]: > 5 µM
AUC [2]: 0.99
IC50 [2]: > 5 µM
AUC [3]: 0.791
IC50 [3]: 1.01 µM
AUC [4]: 0.984
IC50 [4]: > 5 µM

SU-DHL-4 (B-cell lymphoma, suspension)
AUC [1]: 0.944
IC50 [1]: 4.6 µM
AUC [2]: 0.997
IC50 [2]: > 5 µM
AUC [3]: 0.997
IC50 [3]: > 2.56 µM
AUC [4]: 0.991
IC50 [4]: > 5 µM

SU-DHL-6 (B-cell lymphoma, suspension)
AUC [1]: 0.816
IC50 [1]: 1.93 µM
AUC [2]: 0.983
IC50 [2]: > 5 µM
AUC [3]: 0.993
IC50 [3]: > 2.56 µM
AUC [4]: 0.993
IC50 [4]: > 5 µM

SU-DHL-16 (B-cell lymphoma, suspension)
AUC [1]: 0.903
IC50 [1]: 3.36 µM
AUC [2]: 0.996
IC50 [2]: > 5 µM
AUC [3]: 0.885
IC50 [3]: 1.51 µM
AUC [4]: 0.996
IC50 [4]: > 5 µM

SUP-B15 (lymphoblastic leukaemia, suspension)
AUC [1]: 0.867
IC50 [1]: 4.21 µM
AUC [2]: 0.971
IC50 [2]: > 5 µM
AUC [3]: 0.841
IC50 [3]: 1.68 µM
AUC [4]: 0.97
IC50 [4]: > 5 µM

SUP-HD1 (Hodgkin lymphoma, suspension)
AUC [1]: 0.84
IC50 [1]: 3.2 µM
AUC [2]: 0.934
IC50 [2]: > 5 µM
AUC [3]: 0.914
IC50 [3]: > 2.56 µM
AUC [4]: 0.973
IC50 [4]: > 5 µM

SUP-M2 (anaplastic large cell lymphoma, suspension)
AUC [1]: 0.947
IC50 [1]: > 5 µM
AUC [2]: 0.994
IC50 [2]: > 5 µM
AUC [3]: 0.994
IC50 [3]: > 2.56 µM
AUC [4]: 0.994
IC50 [4]: > 5 µM
